Data as given in PubChem BioAssay AID1671193 (National Center for Advancing Translational Sciences (NCATS), 2021).
The campaign covered roughly 150,000 compounds. About 180 (0.12%) were called active. Inconclusive results, whose numbers are uncertain, are shown with a selection of clear calls. The call rests on the fitted dose curve; in most records, active means well fitted cell-killing curve with a large enough effect; inconclusive means small, poorly fitted or top-dose-only effect, or effect the other way; inactive means flat fitted curve, though single readings scatter. Where the call is inconclusive, the potency comes from a doubtful curve fit.

Assay: GF-AFC viability counterscreen for inhibitors of alpha-synuclein gene (SNCA) expression; further: nearly all actives have a fitted effect of over 30% in size;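 on activity change, negative = cytotoxicity: 0% = DMSO-treated cells and -100% = medium-only wells without cells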
Conditions: HEK-293-SNCA-luc viability, GF-AFC fluorescence, 24 h; activity change, negative = cytotoxicity: at 57.1 µM (top of the series) unless noted
Procedure, shortened: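 HEK-293-SNCA-luc cells (1500/well) plated 24 h, then exposed 24 h to a dilution series; GF-AFC added 30 min at 37C, fluorescence 405/540 nm; normalised to medium-only and DMSO wells, Hill fit.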
Potency means the concentration at half of the fitted maximal effect; tags describe the fitted curve by direction and shape.

SMILES | Potency | activity change, negative = cytotoxicity
CCCN(C)C(=O)c1cn2cc(-c3cccc(Cl)c3)n(CC=C(C)C)c(=O)c2n1 | inactive | 
COc1ccc(C2C(=O)N(C3CCCCC3)CC(=O)N2CCC2=CCCCC2)cc1 (stereo unspecified) | inconclusive: 8.91 µM [cytotoxic, partial curve] | 
COCCOCC(=O)N1CCCCCCNC(=O)[C@@H]2C[C@@H](c3nc(Cc4ccccc4)no3)C[C@@H]21 | inconclusive: 0.708 µM [cytotoxic, full curve, poor fit] | 
NC(=O)c1ccc(OC2CCN(C(=O)CC3CCCCC3)C2)nc1 (stereo unspecified) | inactive | 
O=C(NC1CCCCCCC1)C1CCCN(c2cnn(Cc3ccccc3)c(=O)c2)C1 (stereo unspecified) | inconclusive: 5.01 µM [cytotoxic, partial curve, poor fit] | 
COCCOC1CCOC2(CCN(C(=O)COc3ccc(C)cc3)CC2)C1 (stereo unspecified) |  | inactive: -16.9% [at 12.5 µM]
Cn1cc(CNCC2CCN(c3ncc(C(=O)NO)cn3)CC2)c2ccccc21 | inconclusive: 3.41 µM [cytotoxic, full curve] | 
CCCC(=O)Nc1ccc2nc(SCc3ccc(C)cc3)sc2c1 | inactive | 
COc1ccccc1CN1CCNc2cc(Nc3ccccc3)ncc2C1 |  | inconclusive: -55.9% [at 87.6 µM]
CC(C)CCNC(=O)c1ccc2c(c1)nc1n2CCCCC1 | inactive | 
COc1ccc(C(=O)N2CCc3nc(C(C)C)nc(-c4ccc(OC)cc4)c3CC2)cc1 | inconclusive: 15.8 µM [cytotoxic, partial curve, poor fit] | 
COc1cccc(-c2ccc3c(N)c(C(=O)Nc4ccccc4C)sc3n2)c1 | inconclusive: 20 µM [rising, partial curve] | 
CN(C)c1ncc2nc(-c3ccc(F)cc3)c(=O)n(C[C@H]3CCCO3)c2n1 | inconclusive: 14.1 µM [rising, partial curve, poor fit] | 
COc1c(Cl)cc(Cl)cc1CNCCSc1nnnn1C | inconclusive: 7.08 µM [cytotoxic, single point] | 
Cc1ccc2c(C(=O)N3CCN(c4ccccc4F)CC3)cc(NC(=O)C(C)C)cc2n1 | inactive | 
O=C(NCc1cccc(F)c1)c1nc2cccnc2n(Cc2ccccc2)c1=O | inactive | 
O=C(NCCC1CCN(C(=O)Nc2ccc(F)cc2)CC1)c1ccccn1 | inactive | 
CCCN1CCN(CCCNC(=O)Cn2c(-c3cccs3)cc3cc(Cl)ccc32)CC1 | inconclusive: 39.8 µM [cytotoxic, single point] | 
COCCC1(NS(C)(=O)=O)CCN(C(=O)c2ccc(C)nc2)CC1 | inconclusive: 8.91 µM [cytotoxic, single point] | 
CN(Cc1cccn1C)C(=O)NC1CCCC1 | inconclusive: 7.08 µM [cytotoxic, full curve, poor fit] | 
CC(=O)O[C@@H]1C[C@H](O)[C@@]23CO[C@H](O)[C@]1(C)C2C[C@@H](O)[C@]1(C)C3C(=O)[C@H](OC(C)=O)[C@@]2(C)[C@H](c3ccoc3)C[C@H]3O[C@]321 (stereo partly specified) | inconclusive: 0.063 µM [cytotoxic, full curve] | 

SMILES | Potency | activity change, negative = cytotoxicity
COc1ccc(-c2cc(C[C@H]3CNCC[C@H]3CC(=O)N3CCN(c4ccccc4OC)CC3)no2)cc1 | inactive | 
COc1ccc(NC(=O)[C@@H]2C[C@H](c3ccc(F)cc3)N(Cc3csc(C)n3)C2)cn1 | inconclusive: 39.8 µM [cytotoxic, single point] | 
COc1cc(C2c3c(-c4ccccc4O)n[nH]c3C(=O)N2CCO)ccc1OCC(C)C (stereo unspecified) | inconclusive: 12.6 µM [cytotoxic, partial curve, poor fit] | 
O=C(NCc1cccc(C(F)(F)F)c1)c1nc2sccn2c1-c1ccncc1 | inconclusive: 11.2 µM [cytotoxic, partial curve, poor fit] | 
COCCC(=O)NC[C@@H]1C=C(C)[C@H](CC(=O)N(C)Cc2cccnc2)C[C@H]1C(C)C | inconclusive: 28.2 µM [cytotoxic, partial curve, poor fit] | 
COc1ccc(Nc2cnc3ccc(-c4ccccc4)nn23)cc1 | inactive | 
C#CCNC[C@@H]1C=C(C)[C@H](Cc2nnc(Cc3c[nH]c4ccccc34)o2)C[C@H]1C(C)C | inconclusive: 31.6 µM [cytotoxic, single point] | 
N#Cc1cccc(CN2CC[C@@H]3OCC(=O)N(Cc4c[nH]c5ccccc45)[C@H]3CC2)c1 | inactive | 
O=C(CCCc1c[nH]c2ccccc12)N1CCC(c2noc(COc3ccc(F)cc3)n2)CC1 | inconclusive: 11.2 µM [cytotoxic, partial curve, poor fit] | 
CN(C)CCOC(c1ccccc1)c1ccccc1 | inconclusive: 3.55 µM [rising, full curve, poor fit] | 
c1ccc(Nc2cc3c(cn2)CN(Cc2ccc4[nH]ccc4c2)CCN3)cc1 |  | inconclusive: -58.8% [at 87.6 µM]
Cc1cc(=O)n(CC(=O)NCc2ccccc2Br)c(N2CCc3ccccc3C2)n1 | inactive | 
Cc1ccccc1N(C)C1CN(Cc2ccccc2)C1 | inactive | 
CCCS(=O)(=O)NCC1CN(CC2CC2)CC12CCCCC2 (stereo unspecified) | inconclusive: 39.8 µM [cytotoxic, single point] | 
O=C(c1ccc(C(F)(F)F)cc1)N1CCC2(CNc3ccccc3[S+](=O)([O-])N2)C1 (stereo unspecified) | inconclusive: 8.91 µM [cytotoxic, single point] | 
O=C1N(C2CCN(S(=O)(=O)c3ccccc3)CC2)C(c2ccncc2)C12CCCCC2 (stereo unspecified) |  | inactive: 0.753% [at 12.5 µM]
CN1CCN(c2ncc3nc(-c4cn(C)c5ccccc45)c(=O)n(Cc4cccs4)c3n2)CC1 | inconclusive: 3.16 µM [rising, partial curve, poor fit] | 
O=C(COc1ccccc1)NC[C@H]1O[C@H](Cc2cc(-c3ccccc3)on2)CC[C@@H]1O | inactive | 
C[S+](=O)([O-])N1CCC2(CCN(Cc3cccs3)c3ccccc3O2)CC1 | inconclusive: 15.8 µM [cytotoxic, single point] | 
CC(C)C(CO)Nc1nc(Nc2cc(N)cc(Cl)c2)c2ncn(C(C)C)c2n1 (stereo unspecified) | inconclusive: 26.7 µM [cytotoxic, single point] | 
